Experimental data: patent US20050203135A1, “Antagonists for treatment of CD/11CD18 adhesion receptor mediated disorders” (Genentech, Inc., priority 1998, published 2005)
Read-outs that look alike come from different tables or passages of the source.

Columns and labels:
[1] = target: T1, CD11a/CD18-ICAM-1 interaction (recombinant human LFA-1 / human 5 domain ICAM-Ig) (Homo sapiens, UniProt P05107+P20701); assay: Forward format LFA-1:ICAM-1 assay (PPFF), protein/protein receptor binding; parameters: containing the full-length cDNAs for the aL (CD11a) and b2 (CD18) subunits; made in house; conditions: forward format of LFA/ICAM assay
Excerpt: Forward Format LFA-1:ICAM-1 Assay (PPFF):

[2] = target: T1, CD11a/CD18-ICAM-1 interaction (recombinant human LFA-1 / human 5 domain ICAM-Ig); conditions: PLM2(μM)
[3] = PLM2 antibody capture format of LFA/ICAM assay

IC50 [1] [µM] | IC50 [2, 3] [µM] | SMILES | IC50 [2] [µM]
0.042 |  | C[C@H](NC(=O)c1ccc(NC(=O)Cc2cccc(O)c2)cc1Cl)C(=O)O [Example 255] | 
0.076 |  | C[C@@H](O)[C@H](NC(=O)c1ccc(NC(=O)Cc2cccc(O)c2)cc1Cl)C(=O)O [Example 256] | 
0.092 |  | O=C(NCc1cc(F)c(C(=O)N[C@@H](Cc2c[nH]c3ccccc23)C(=O)O)c(F)c1)c1cccc(O)c1 [Example 283] | 
0.093 | 0.079 | Cc1cc(CNC(=O)c2cccc(O)c2)cc(C)c1C(=O)N[C@@H](C)C(=O)O [Example 284] | 
0.064 |  | Cc1cc(CNC(=O)c2cccc(O)c2)cc(C)c1C(=O)N[C@@H](CC(N)=O)C(=O)O [Example 285] | 
0.082 |  | C[C@H](NC(=O)c1ccc(C(=O)NCc2cccc(F)c2)cc1Br)C(=O)O [Example 310] | 
0.014 | 0.006 | C[C@H](NC(=O)c1ccc(C(=O)NCc2cccc(O)c2)cc1Cl)C(=O)O [Example 340] | 
0.031 |  | C[C@@H](O)[C@H](NC(=O)c1ccc(C(=O)NCc2cccc(O)c2)cc1Cl)C(=O)O [Example 341] | 
0.057 | 0.004 | O=C(NCc1cccc(O)c1)c1ccc(C(=O)N[C@@H](Cc2c[nH]c3ccccc23)C(=O)O)c(Cl)c1 [Example 342] | 
0.183 | 0.053 | O=C(NCc1cccc(O)c1)c1ccc(C(=O)N[C@@H](COCc2ccccc2)C(=O)O)c(Cl)c1 [Example 344] | 
0.019 | 0.004 | NC(=O)C[C@H](NC(=O)c1ccc(C(=O)NCc2cccc(O)c2)cc1Cl)C(=O)O [Example 345] | 
0.071 |  | NCCCC[C@H](NC(=O)c1ccc(C(=O)NCc2cccc(O)c2)cc1Cl)C(=O)O [Example 346] | 
0.044 | 0.004 | O=C(NCc1cccc(O)c1)c1ccc(C(=O)N[C@@H](Cc2c[nH]cn2)C(=O)O)c(Cl)c1 [Example 347] | 
0.09 | 0.023 | CC(=O)NCCCC[C@H](NC(=O)c1ccc(C(=O)NCc2cccc(O)c2)cc1Cl)C(=O)O [Example 348] | 
0.042 |  | NC(=O)CC[C@H](NC(=O)c1ccc(C(=O)NCc2cccc(O)c2)cc1Cl)C(=O)O [Example 349] | 
0.027 | 0.005 | C=CCOC(=O)NC[C@H](NC(=O)c1ccc(C(=O)NCc2cccc(O)c2)cc1Cl)C(=O)O [Example 350] | 
0.067 | 0.032 | C=CCOC(=O)NCC[C@H](NC(=O)c1ccc(C(=O)NCc2cccc(O)c2)cc1Cl)C(=O)O [Example 351] | 
0.068 |  | O=C(NCc1cccc(Cl)c1)c1ccc(C(=O)N[C@@H](Cc2c[nH]cn2)C(=O)O)c(Cl)c1 [Example 356] | 
0.057 | 0.023 | NC(=O)C[C@H](NC(=O)c1ccc(C(=O)NCc2cccc(Cl)c2)cc1Cl)C(=O)O [Example 357] | 
0.23 | 0.032 | O=C(NCc1cccc(O)c1)Nc1ccc(C(=O)N[C@@H](Cc2c[nH]c3ccccc23)C(=O)O)c(Cl)c1 [Example 358] | 
 | 0.018 | O=C(NCc1cccc(O)c1)c1ccc(C(=O)NC(Cc2cccc(O)c2)C(=O)O)c(Cl)c1 (centres unmarked) [Example 360] | 
0.014 | 0.01 | CC(NC(=O)c1ccc(C(=O)N[C@@H](CC(N)=O)C(=O)O)c(Cl)c1)c1cccc(O)c1 (some centres unmarked) [Example 363] | 

IC50 [1] [µM] | IC50 [2, 3] [µM] | SMILES | IC50 [2] [µM]
0.087 | 0.035 | CC(NC(=O)c1ccc(C(=O)N[C@@H](Cc2c[nH]c3ccccc23)C(=O)O)c(Cl)c1)c1cccc(O)c1 (some centres unmarked) [Example 364] | 
 | 0.024 | CCC(NC(=O)c1ccc(C(=O)N[C@@H](CC(N)=O)C(=O)O)c(Cl)c1)c1cccc(O)c1 (some centres unmarked) [Example 365] | 
 |  | CCC(NC(=O)c1ccc(C(=O)N[C@@H](Cc2c[nH]c3ccccc23)C(=O)O)c(Cl)c1)c1cccc(O)c1 (some centres unmarked) [Example 366] | 0.062
 | 0.02 | CCCC(NC(=O)c1ccc(C(=O)N[C@@H](CC(N)=O)C(=O)O)c(Cl)c1)c1cccc(O)c1 (some centres unmarked) [Example 367] | 
 | 0.043 | CCCC(NC(=O)c1ccc(C(=O)N[C@@H](Cc2c[nH]c3ccccc23)C(=O)O)c(Cl)c1)c1cccc(O)c1 (some centres unmarked) [Example 368] | 
 | 0.019 | NS(=O)(=O)C[C@H](NC(=O)c1ccc(C(=O)NCc2cccc(O)c2)cc1Cl)C(=O)O [Example 369] | 
0.055 | 0.037 | CC(NC(=O)c1ccccc1)c1ccc(C(=O)N[C@@H](CC(N)=O)C(=O)O)c(Cl)c1 (some centres unmarked) [Example 371] | 
 | 0.04 | CC(NC(=O)c1ccccc1)c1ccc(C(=O)NC(CC(N)=O)C(=O)O)c(Cl)c1 (centres unmarked) [Example 375] | 
 | 0.007 | O=C(NCc1cccc(O)c1)c1ccc(C(=O)N[C@@H](Cc2c[nH]c3ccccc23)C(=O)O)c([N+](=O)[O-])c1 [Example 378] | 
 | 0.01 | NC(=O)C[C@H](NC(=O)c1ccc(C(=O)NCc2cccc(O)c2)cc1[N+](=O)[O-])C(=O)O [Example 379] | 
 | 0.096 | O=C(NCc1cccc(O)c1)c1ccc(C(=O)NC(Cc2c[nH]c3ccccc23)C(=O)O)c2sccc12 (centres unmarked) [Example 380] | 
 | 0.035 | NC(=O)CC(NC(=O)c1ccc(C(=O)NCc2cccc(O)c2)c2ccsc12)C(=O)O (centres unmarked) [Example 381] | 
 | 0.06 | NCCCCC(NC(=O)c1ccc(C(=O)NCc2cccc(O)c2)c2ccsc12)C(=O)O (centres unmarked) [Example 383] | 
0.046 | 0.018 | NC(=O)C[C@H](NC(=O)c1ccc(OCC(O)c2cccc(O)c2)cc1Cl)C(=O)O (some centres unmarked) [Example 384] | 
0.07 | 0.048 | C[C@H](NC(=O)c1ccc(OCC(O)c2cccc(O)c2)cc1Cl)C(=O)O (some centres unmarked) [Example 385] | 
0.03 |  | C[C@H](NC(=O)c1ccc(C(O)CCc2cccc(O)c2)cc1Cl)C(=O)O (some centres unmarked) [Example 386] | 
0.098 | 0.043 | C[C@H](NC(=O)c1ccc(C(=O)CCc2cccc(O)c2)cc1Cl)C(=O)O [Example 387] | 
0.05 |  | C[C@H](NC(=O)c1ccc(OCCOc2cccc(O)c2)cc1Cl)C(=O)O [Example 388] | 
0.054 | 0.01 | NC(=O)C[C@H](NC(=O)c1c(Cl)cc(OCC(O)c2cccc(O)c2)cc1Cl)C(=O)O (some centres unmarked) [Example 389] | 
 | 0.079 | NC(=O)C[C@H](NC(=O)c1c(Cl)cc(OCCCOc2cccc(O)c2)cc1Cl)C(=O)O [Example 390] | 
 | 0.007 | NC(=O)C[C@H](NC(=O)c1c(Cl)cc(OCCOc2cccc(O)c2)cc1Cl)C(=O)O [Example 391] | 
 | 0.025 | C[C@H](NC(=O)c1c(Cl)cc(OCCOc2cccc(O)c2)cc1Cl)C(=O)O [Example 392] | 

IC50 [1] [µM] | IC50 [2, 3] [µM] | SMILES | IC50 [2] [µM]
 | 0.003 | NC(=O)C[C@H](NC(=O)c1c(Cl)cc(CCC(O)c2cccc(O)c2)cc1Cl)C(=O)O (some centres unmarked) [Example 393] | 
 | 0.006 | Cc1cc(C(O)CCc2cccc(O)c2)cc(C)c1C(=O)N[C@@H](CC(N)=O)C(=O)O (some centres unmarked) [Example 395] | 
 | 0.062 | CC(CCc1cc(Cl)c(C(=O)N[C@@H](CC(N)=O)C(=O)O)c(Cl)c1)c1cccc(O)c1 (some centres unmarked) [Example 396] | 
 | 0.005 | NC(=O)C[C@H](NC(=O)c1c(Cl)cc(C(O)CCc2cccc(O)c2)cc1Cl)C(=O)O (some centres unmarked) [Example 397] | 
 | 0.015 | COC(CCc1cccc(O)c1)c1cc(Cl)c(C(=O)N[C@@H](CC(N)=O)C(=O)O)c(Cl)c1 (some centres unmarked) [Example 398] | 
 | 0.002 | CCCOC(=O)NC[C@H](NC(=O)c1c(Cl)cc(C(O)CCc2cccc(O)c2)cc1Cl)C(=O)O (some centres unmarked) [Example 399] | 
 | 0.007 | NCCCC[C@H](NC(=O)c1c(Cl)cc(C(O)CCc2cccc(O)c2)cc1Cl)C(=O)O (some centres unmarked) [Example 400] | 
 | 0.002 | C=CCOC(=O)NC[C@H](NC(=O)c1c(Cl)cc(CCC(O)c2cccc(O)c2)cc1Cl)C(=O)O (some centres unmarked) [Example 401] | 
 | 0.004 | COC(CCc1cc(Cl)c(C(=O)N[C@@H](CC(N)=O)C(=O)O)c(Cl)c1)c1cccc(O)c1 (some centres unmarked) [Example 402] | 
 | 0.009 | C=CCOC(=O)NC[C@H](NC(=O)c1c(Cl)cc(CCC(O)c2cccc(Cl)c2)cc1Cl)C(=O)O (some centres unmarked) [Example 403] | 
 | 0.002 | O=C(NC[C@H](NC(=O)c1c(Cl)cc(CCC(O)c2cccc(Cl)c2)cc1Cl)C(=O)O)c1cccs1 (some centres unmarked) [Example 404] | 
 | 0.022 | NCCCC[C@H](NC(=O)c1c(Cl)cc(CCC(O)c2cccc(Cl)c2)cc1Cl)C(=O)O (some centres unmarked) [Example 406] | 
 | 0.044 | C=CCNC(=O)C[C@H](NC(=O)c1ccc(C(=O)NCc2cccc(O)c2)cc1Cl)C(=O)O [Example 427] | 
 | 0.011 | O=C(C[C@H](NC(=O)c1ccc(C(=O)NCc2cccc(O)c2)cc1Cl)C(=O)O)Nc1ccccc1 [Example 436] | 
0.083 | 0.034 | CC(C)CCNC(=O)CC[C@H](NC(=O)c1ccc(C(=O)NCc2cccc(O)c2)cc1Cl)C(=O)O [Example 437] | 
 | 0.068 | O=C(CC[C@H](NC(=O)c1ccc(C(=O)NCc2cccc(O)c2)cc1Cl)C(=O)O)Nc1ccccc1 [Example 440] | 
 | 0.006 | C=CCNC(=O)OC[C@H](NC(=O)c1ccc(C(=O)NCc2cccc(O)c2)cc1Cl)C(=O)O [Example 442] | 
 | 0.01 | CCCNC(=O)OC[C@H](NC(=O)c1ccc(C(=O)NCc2cccc(O)c2)cc1Cl)C(=O)O [Example 443] | 
 | 0.041 | CCCNC(=O)OCCC(NC(=O)c1ccc(C(=O)NCc2cccc(O)c2)cc1Cl)C(=O)O (centres unmarked) [Example 444] | 
 | 0.061 | CC(NC(=O)OCCC(NC(=O)c1ccc(C(=O)NCc2cccc(O)c2)cc1Cl)C(=O)O)c1ccccc1 (centres unmarked) [Example 450] | 
